Hit rate of the full screen: of about 410,000 compounds, about 7,200 (1.8%) were called active. The inconclusive results got no clear call from the source; some entries with a clear call stand among them for comparison. Calls follow the shape of the dose curve; as a rule, active = well fitted activation curve with a large enough effect; inconclusive = small, poorly fitted or top-dose-only effect, or another doubt; inactive = no such curve, though single readings can be large or run the other way. Where the call is inconclusive, the potency comes from a doubtful curve fit.
Assay: qHTS of TDP-43 Inhibitors; also: nearly all actives have a fitted effect of over 50% in size; as to growth rescue (activation): % of control where 0% means no effect
Settings: TDP-43 expressing yeast growth rescue, BacTiter-Glo, 24 h; growth rescue (activation): at 46.1 µM (top of the series) unless noted
Method in brief: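 Readout is BacTiter-Glo luminescence of cell growth, so inhibitors register as activators. TDP-43-expressing yeast at OD600=0.02 in galactose medium, after raffinose pregrowth to mid-log, were incubated with compound for 24 hr at 30 deg C.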
Potency is read from the fitted curve at half-maximal effect; tags tell the direction and shape of the fitted curve.

Growth rescue (activation), inconclusive:
Cc1ccc(C)c(S(=O)(=O)N2CCN(C(=O)C3CC3C)CC2)c1 (configuration not stated) 41.6% [activator]

Potency, active:
O=S(=O)(NCC(c1ccco1)N1CCc2ccccc21)c1ccccc1 (configuration not stated) 22.4 µM, O=C(Nc1cccn(Cc2c(Cl)cccc2Cl)c1=O)c1ccccc1Cl 3.98 µM, O=C(c1ccco1)n1nc(NCc2ccccc2)nc1NCc1ccccc1 10 µM, Clc1ccc(-c2nc3ccc(Br)cn3c2Cc2ccsc2)cc1 35.5 µM, COc1ccc(C(C)C)cc1S(=O)(=O)NCCc1c(C)[nH]c2c(Cl)cccc12 6.31 µM

Potency, inconclusive:
CCOC(=O)Cc1csc(NC(=O)Cc2cccs2)n1 10 µM [activator, partial curve], CCc1ccccc1NC(=O)c1cc(S(=O)(=O)N(C)C)ccc1N1CCCC1 35.5 µM [activator, partial curve], CCc1n[nH]c(=S)n1/N=C/c1ccc(N(C)c2ccccc2)cc1 31.6 µM [activator, single point], COc1cc(OC)c(NC(=O)c2cnc(N3CCCC3)nc2C)cc1Cl 35.5 µM [activator, partial curve], CCOc1ccc(-c2cccc(NS(=O)(=O)c3ccc(Cl)s3)c2)nn1 22.4 µM [activator, partial curve], CCc1ccccc1NC(=O)CCCN1C(=O)COc2ccc(C)cc21 25.1 µM [activator, single point], N#C/C(=C\c1ccc(Cl)cc1)C(=O)NC1CC1 20 µM [activator, partial curve], COc1ccc(C(O)c2nc(-c3ccc(OC)c(OC)c3)cs2)cc1 (configuration not stated) 12.6 µM [activator, single point], Cc1cc(C)nc(NC(=NCCc2c[nH]c3ccccc23)NC(=O)Nc2ccccc2)n1 31.6 µM [activator, single point], Cc1cc(Cl)ccc1NC(=O)CSc1nnc(Cc2cccs2)n1Cc1ccco1 35.5 µM [activator, single point], Cc1cccc(NC(=O)c2ccc(OC3CSC3)cc2)c1 15.8 µM [activator, single point], Cc1cc(C)cc(-n2ncc3c2CCCC3NC(=O)c2cc(C)n(C)n2)c1 (configuration not stated) 10 µM [activator, single point], CCOC(=O)c1sc2ncnc(N3CCN(C(=O)OCC)CC3)c2c1C 11.2 µM [activator, partial curve], C=CCNC(=S)N/N=C/c1ccc(C)c([N+](=O)[O-])c1 8.91 µM [activator, partial curve], CCOC(=O)c1ccc(N2C(=O)c3n[nH]c(C)c3C2c2ccc(CC)cc2)cc1 (configuration not stated) 1 µM [activator, full curve, poor fit], CCc1c(-c2ccccc2)nc2sc3c(c2c1N)CCCC3 11.2 µM [activator, partial curve], Cc1cccc(C(=O)c2cn[nH]c2-c2ccc(C)cc2O)c1 17.8 µM [activator, partial curve], CCc1nc2ccc(C(=O)NC3CCC(C)CC3)cc2nc1CC (configuration not stated) 22.4 µM [activator, single point], Cc1ccc2[nH]c3c(c2c1)CN(C(=O)CN1c2ccc(F)cc2CCC1C)CC3 (configuration not stated) 20 µM [activator, single point], C[C@H](NC(=O)OC(C)(C)C)c1nnc(SCc2ccc(Cl)cc2Cl)o1 35.5 µM [activator, single point], CC(C)c1ccc(NC(=O)c2cc(S(=O)(=O)NCCc3ccccc3)ccc2F)cc1 25.1 µM [activator, partial curve], Cn1cc(C=C2C(=O)OC3(CCCCC3)OC2=O)c2ccccc21 3.55 µM [activator, single point], COc1ccc(C2CC(=O)Oc3cc(C)c(Cl)cc32)cc1 (configuration not stated) 35.5 µM [activator, single point], COc1ccc(-c2[nH]ncc2Oc2ccccc2OC)c(O)c1 22.4 µM [activator, single point], COc1ccccc1N1CCN(C2CC(=O)N(c3cccc(Cl)c3)C2=O)CC1 (configuration not stated) 15.8 µM [activator, single point], COc1ccc(NC(=O)CN2C(=O)C(c3ccccc3)=NC23CCC(C)CC3)cc1Cl (configuration not stated) 0.891 µM [activator, full curve, poor fit], CN(C)S(=O)(=O)N(CC(=O)NCCSCc1ccc(Cl)cc1Cl)c1ccccc1 35.5 µM [activator, single point], CC1(C(=O)O)CCCN(C(=O)c2ccc3c(c2)C(C)(C)CCC3(C)C)C1 (configuration not stated) 0.562 µM [activator, full curve, poor fit], COc1cccc(/C=N/Nc2nccnc2Cl)c1O 31.6 µM [activator, single point], COc1cc(C(=O)Nc2ccc(Oc3ncnc4sc(-c5ccccc5)cc34)cc2)cc(OC)c1OC 2.51 µM [activator, partial curve], CCOC(=O)c1c(NC(=O)CSc2nnc(-c3ccco3)o2)sc(C)c1C 12.6 µM [activator, single point]

Potency, inactive:
COc1ccc(C(=O)c2oc3ccccc3c2NC(=O)c2nc(SC)ncc2Cl)cc1Cl, O=C1NC(c2ccc(Br)cc2)Nc2ccccc21 (configuration not stated), Cc1cc2c(=Cc3ccc(N(C)C)cc3)c3ccccc3n2[n+]1C, Cc1ccc(-n2nc(C(=O)N(C)c3ccccc3Cl)c3c4ccccc4n(C)c3c2=O)cc1, COc1cc2[nH]c(=O)n(CCCC(=O)N(C)Cc3ccccc3)c(=O)c2cc1OC
